Measurements: article PMC3217859
These are yes or no findings as the source states them, for the method shown. In cells and extracts the contact can be indirect. Some binding calls cover weakened binding; strength is not graded here. For some of these results: Tags and fused reporters may be left off the sequences shown.

Assays:
Assay in all cases: co-IP; anti-HA immunoprecipitates (12CA5 with protein A-Sepharose, or F7 anti-HA-agarose when probing for Mst3 or Mst4; 1.5 h, 4°C) of lysates (1% Nonidet P-40, 0.135 M NaCl, 10% glycerol, 20 mM Tris pH 8.0) of HEK293 cells transfected with HA-striatins; endogenous partners by immunoblot, partner/HA-striatin ratio by chemilumimager against wild type; 50 mM NaF and 100 nM okadaic acid in the lysis buffer in the phosphorylation experiments
[1] = molecular target: T1, HA-tagged R88S/K89E striatin (human) (UniProt O43815)
T1 sequence: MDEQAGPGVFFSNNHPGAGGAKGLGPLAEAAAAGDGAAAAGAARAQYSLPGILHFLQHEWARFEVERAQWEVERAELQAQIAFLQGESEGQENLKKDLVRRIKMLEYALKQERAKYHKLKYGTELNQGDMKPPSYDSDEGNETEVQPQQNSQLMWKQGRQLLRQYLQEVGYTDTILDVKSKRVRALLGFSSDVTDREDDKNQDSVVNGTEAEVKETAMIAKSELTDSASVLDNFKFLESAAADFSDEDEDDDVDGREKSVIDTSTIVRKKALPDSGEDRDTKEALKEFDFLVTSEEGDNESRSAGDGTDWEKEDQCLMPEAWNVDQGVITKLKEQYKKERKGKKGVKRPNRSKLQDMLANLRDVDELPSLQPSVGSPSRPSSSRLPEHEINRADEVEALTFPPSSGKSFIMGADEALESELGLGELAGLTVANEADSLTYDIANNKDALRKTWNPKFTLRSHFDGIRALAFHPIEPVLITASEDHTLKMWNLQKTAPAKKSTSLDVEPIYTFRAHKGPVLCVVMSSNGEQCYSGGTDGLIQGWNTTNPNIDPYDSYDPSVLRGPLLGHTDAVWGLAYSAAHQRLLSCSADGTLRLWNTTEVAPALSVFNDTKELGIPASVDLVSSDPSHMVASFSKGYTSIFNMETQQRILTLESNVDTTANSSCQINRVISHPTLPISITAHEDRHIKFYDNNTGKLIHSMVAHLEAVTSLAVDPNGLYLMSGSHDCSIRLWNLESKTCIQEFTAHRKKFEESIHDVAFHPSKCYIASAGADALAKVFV

[2] = molecular target: HA-tagged Δ(148-166) striatin (human) (UniProt O43815)
[3] = molecular target: HA-tagged Δ(270-344) striatin (human) (UniProt O43815)
[4] = molecular target: T2, HA-tagged Δ(53-66) striatin (human) (UniProt O43815)
T2 sequence: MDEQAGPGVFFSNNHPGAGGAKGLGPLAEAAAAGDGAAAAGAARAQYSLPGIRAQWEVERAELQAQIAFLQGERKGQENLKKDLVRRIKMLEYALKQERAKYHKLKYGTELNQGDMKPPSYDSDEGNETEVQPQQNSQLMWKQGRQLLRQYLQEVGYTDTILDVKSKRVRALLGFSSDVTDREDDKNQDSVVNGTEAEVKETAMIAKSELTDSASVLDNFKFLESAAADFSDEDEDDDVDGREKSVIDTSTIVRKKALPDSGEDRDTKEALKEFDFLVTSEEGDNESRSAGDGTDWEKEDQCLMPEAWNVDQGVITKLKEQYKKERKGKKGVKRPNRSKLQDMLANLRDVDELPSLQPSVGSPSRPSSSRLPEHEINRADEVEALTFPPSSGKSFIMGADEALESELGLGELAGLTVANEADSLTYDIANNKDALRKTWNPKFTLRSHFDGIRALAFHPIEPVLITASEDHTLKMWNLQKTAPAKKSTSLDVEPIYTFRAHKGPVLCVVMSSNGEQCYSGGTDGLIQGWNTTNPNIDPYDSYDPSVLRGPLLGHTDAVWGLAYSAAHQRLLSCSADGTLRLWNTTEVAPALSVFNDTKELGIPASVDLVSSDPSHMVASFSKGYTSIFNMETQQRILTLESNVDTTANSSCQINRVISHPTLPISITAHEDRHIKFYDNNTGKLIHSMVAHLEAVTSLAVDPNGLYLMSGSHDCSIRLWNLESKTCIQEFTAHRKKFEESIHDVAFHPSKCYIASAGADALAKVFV

B1: Mob3/phocein (protein, UniProt Q9Y3A3 1-225)
chain: MVMAEGTAVLRRNRPGTKAQDFYNWPDESFDEMDSTLAVQQYIQQNIRADCSNIDKILEPPEGQDEGVWKYEHLRQFCLELNGLAVKLQSECHPDTCTQMTATEQWIFLCAAHKTPKECPAIDYTRHTLDGAACLLNSNKYFPSRVSIKESSVAKLGSVCRRIYRIFSHAYFHHRQIFDEYENETFLCHRFTKFVMKYNLMSKDNLIVPILEEEVQNSVSGESEA
For B1, the binding [1] was “binds”, the binding [2] was “binds” and the binding [3] was “binds”. The binding [4] was “binds”.

B2: S/G2 nuclear autoantigen (SG2NA) (protein, UniProt Q13033 1-797)
chain: MDELAGGGGGGPGMAAPPRQQQGPGGNLGLSPGGNGAAGGGGPPASEGAGPAAGPELSRPQQYTIPGILHYIQHEWARFEMERAHWEVERAELQARIAFLQGERKGQENLKKDLVRRIKMLEYALKQERAKYHKLKYGTELNQGDLKMPTFESEETKDTEAPTAPQNSQLTWKQGRQLLRQYLQEVGYTDTILDVRSQRVRSLLGLSNSEPNGSVETKNLEQILNGGESPKQKGQEIKRSSGDVLETFNFLENADDSDEDEENDMIEGIPEGKDKHRMNKHKIGNEGLAADLTDDPDTEEALKEFDFLVTAEDGEGAGEARSSGDGTEWDKDDLSPTAEVWDVDQGLISKLKEQYKKERKGKKGVKRANRTKLYDMIADLGDDELPHIPSGIINQSRSASTRMTDHEGARAEEAEPITFPSGGGKSFIMGSDDVLLSVLGLGDLADLTVTNDADYSYDLPANKDAFRKTWNPKYTLRSHFDGVRALAFHPVEPVLVTASEDHTLKLWNLQKTVPAKKSASLDVEPIYTFRAHIGPVLSLAISSNGEQCFSGGIDATIQWWNMPSPSVDPYDTYEPNVLAGTLVGHTDAVWGLAYSGIKNQLLSCSADGTVRLWNPQEKLPCICTYNGDKKHGIPTSVDFIGCDPAHMVTSFNTGSAVIYDLETSQSLVILSSQVDSGLQSNNHINRVVSHPTLPVTITAHEDRHIKFFDNKTGKMIHSMVAHLDAVTSLAVDPNGIYLMSGSHDCSIRLWNLDSKTCVQEITAHRKKLDESIYDVAFHSSKAYIASAGADALAKVFV
With B2 the binding [1] was “binds”, the binding [2] was “binds” and the binding [4] was “no binding”.
